Measurements from a collection of fitness landscapes (doi:10.1126/science.1257360).
Some of the results follow.

B1: PhoQ; a variant is named by its letters at X, in order, P23837 (parent)
chain: MKKLLRLFFPLSLRVRFLLATAAVVLVLSLAYGMVALIGYSVSFDKTTFRLLRGESNLFYTLAKWENNKLHVELPENIDKQSPTMTLIYDENGQLLWAQRDVPWLMKMIQPDWLKSNGFHEIEADVNDTSLLLSGDHSIQQQLQEVREDDDDAEMTHSVAVNVYPATSRMPKLTIVVVDTIPVELKSSYMVWSWFIYVLSANLLLVIPLLWVAAWWSLRPIEALAKEVRELEEHNRELLNPATTRELTSLVRNLNRLLKSERERYDKYRTTLTDLTHSLKTPLXXLQXXLRSLRSEKMSVSDAEPVMLEQISRISQQIGYYLHRASMRGGTLLSRELHPVAPLLDNLTSALNKVYQRKGVNISLDISPEISFVGEQNDFVEVMGNVLDNACKYCLEFVEISARQTDEHLYIVVEDDGPGIPLSKREVIFDRGQRVDTLRPGQGVGLAVAREITEQYEGKIVAGESMLGGARMEVIFGRQHSAPKDE

Variants of: B1
Assay: enrichment ratio after two sorts for PhoP signalling (ratio (wild type AVST 3.29)); higher = more functional
Details: with PhoP (E. coli)

RLDW and GMMV cannot be ordered by enrichment ratio: no more than 0.25 for the first, no more than 0.25 for the second.

KVVD and PWYG cannot be ordered by enrichment ratio: no more than 0.25 for the first, no more than 0.25 for the second.

HPMN and GTGI cannot be ordered by enrichment ratio: no more than 0.25 for the first, no more than 0.25 for the second.

TWAR and LSGQ cannot be ordered by enrichment ratio: no more than 0.25 for the first, no more than 0.25 for the second.

YCMN and VYGI cannot be ordered by enrichment ratio: no more than 0.25 for the first, no more than 0.25 for the second.

HQSY and DRIH cannot be ordered by enrichment ratio: no more than 0.25 for the first, no more than 0.25 for the second.

RYHS and PLIC cannot be ordered by enrichment ratio: no more than 0.25 for the first, no more than 0.25 for the second.

PRRI and DTPD cannot be ordered by enrichment ratio: no more than 0.25 for the first, no more than 0.25 for the second.

SKFC and EFKG cannot be ordered by enrichment ratio: no more than 0.25 for the first, no more than 0.25 for the second.

IYEM and WAKD cannot be ordered by enrichment ratio: no more than 0.25 for the first, no more than 0.25 for the second.

SMER and ALPL cannot be ordered by enrichment ratio: no more than 0.25 for the first, no more than 0.25 for the second.

First: GQAM
Second: EIYV
The enrichment ratio of the first is higher: 10.1 for the first, no more than 0.25 for the second.

Compared with LIPE, GILS is higher in enrichment ratio: no more than 0.25 for the first, 11 for the second.

QRVE and MRNV cannot be ordered by enrichment ratio: no more than 0.25 for the first, no more than 0.25 for the second.

QFMP and HYDG cannot be ordered by enrichment ratio: no more than 0.25 for the first, no more than 0.25 for the second.

PHDT and EQCT cannot be ordered by enrichment ratio: no more than 0.25 for the first, no more than 0.25 for the second.

NRDQ and RAFR cannot be ordered by enrichment ratio: no more than 0.25 for the first, no more than 0.25 for the second.

WDSF and DGMY cannot be ordered by enrichment ratio: no more than 0.25 for the first, no more than 0.25 for the second.

SYQN and KMYP cannot be ordered by enrichment ratio: no more than 0.25 for the first, no more than 0.25 for the second.

FLVR and PDVI cannot be ordered by enrichment ratio: no more than 0.25 for the first, no more than 0.25 for the second.

RQHT and YYHY cannot be ordered by enrichment ratio: no more than 0.25 for the first, no more than 0.25 for the second.

AWIN and HFRA cannot be ordered by enrichment ratio: no more than 0.25 for the first, no more than 0.25 for the second.

HSCD and HKAN cannot be ordered by enrichment ratio: no more than 0.25 for the first, no more than 0.25 for the second.

Compared with TGCC, HLLL is lower in enrichment ratio: 21.5 for the first, 1.99 for the second.

VIKD and HQKT cannot be ordered by enrichment ratio: no more than 0.25 for the first, no more than 0.25 for the second.

First: QLSA
Second: AQLK
The enrichment ratio of the first is lower: no more than 0.25 for the first, 5.59 for the second.

IRKL and KLTW cannot be ordered by enrichment ratio: no more than 0.25 for the first, no more than 0.25 for the second.

EKFG and DGWY cannot be ordered by enrichment ratio: no more than 0.25 for the first, no more than 0.25 for the second.

First: SKML
Second: VDAH
The enrichment ratio of the first is higher: 8.89 for the first, no more than 0.25 for the second.

NPTV and VAIS cannot be ordered by enrichment ratio: no more than 0.25 for the first, no more than 0.25 for the second.

FCFY and GDYV cannot be ordered by enrichment ratio: no more than 0.25 for the first, no more than 0.25 for the second.

VLWV and TMDH cannot be ordered by enrichment ratio: no more than 0.25 for the first, no more than 0.25 for the second.

Going from TYQI to RSLE, the enrichment ratio falls from 0.263 to no more than 0.25.

RHEF and RQDR cannot be ordered by enrichment ratio: no more than 0.25 for the first, no more than 0.25 for the second.

TEKA and ILLK cannot be ordered by enrichment ratio: no more than 0.25 for the first, no more than 0.25 for the second.

WSKL and IGWF cannot be ordered by enrichment ratio: no more than 0.25 for the first, no more than 0.25 for the second.

Compared with HMCL, EQQI is lower in enrichment ratio: 2.41 for the first, no more than 0.25 for the second.

Going from QSDC to IFDQ, the enrichment ratio falls from 7.21 to no more than 0.25.

VNIS and KIIL cannot be ordered by enrichment ratio: no more than 0.25 for the first, no more than 0.25 for the second.

VIWF and IHMR cannot be ordered by enrichment ratio: no more than 0.25 for the first, no more than 0.25 for the second.

Compared with ANSL, MHFK is lower in enrichment ratio: 16.8 for the first, no more than 0.25 for the second.

MCVR and EEHG cannot be ordered by enrichment ratio: no more than 0.25 for the first, no more than 0.25 for the second.

PDSI and WTFF cannot be ordered by enrichment ratio: no more than 0.25 for the first, no more than 0.25 for the second.

Compared with RFQN, HSCM is higher in enrichment ratio: no more than 0.25 for the first, 4.17 for the second.

QGRG and DRFY cannot be ordered by enrichment ratio: no more than 0.25 for the first, no more than 0.25 for the second.

KGRR and TKQR cannot be ordered by enrichment ratio: no more than 0.25 for the first, no more than 0.25 for the second.

SAVW and YIRR cannot be ordered by enrichment ratio: no more than 0.25 for the first, no more than 0.25 for the second.

NCRC and LHSC cannot be ordered by enrichment ratio: no more than 0.25 for the first, no more than 0.25 for the second.

VSKE and YKVA cannot be ordered by enrichment ratio: no more than 0.25 for the first, no more than 0.25 for the second.

Going from THMS to LCPA, the enrichment ratio falls from 0.719 to no more than 0.25.

KYLA and VDSD cannot be ordered by enrichment ratio: no more than 0.25 for the first, no more than 0.25 for the second.

KDVE and PWAC cannot be ordered by enrichment ratio: no more than 0.25 for the first, no more than 0.25 for the second.

GYTH and DESA cannot be ordered by enrichment ratio: no more than 0.25 for the first, no more than 0.25 for the second.

QHGS and VQGA cannot be ordered by enrichment ratio: no more than 0.25 for the first, no more than 0.25 for the second.

AAMH and WKWQ cannot be ordered by enrichment ratio: no more than 0.25 for the first, no more than 0.25 for the second.

LHNL and RYLC cannot be ordered by enrichment ratio: no more than 0.25 for the first, no more than 0.25 for the second.

YTNY and CFIP cannot be ordered by enrichment ratio: no more than 0.25 for the first, no more than 0.25 for the second.

PACL and LKKS cannot be ordered by enrichment ratio: no more than 0.25 for the first, no more than 0.25 for the second.

EVSY and HSCF cannot be ordered by enrichment ratio: no more than 0.25 for the first, no more than 0.25 for the second.

NPHK and GDWM cannot be ordered by enrichment ratio: no more than 0.25 for the first, no more than 0.25 for the second.

YHSK and QSCD cannot be ordered by enrichment ratio: no more than 0.25 for the first, no more than 0.25 for the second.

DALH and FWIR cannot be ordered by enrichment ratio: no more than 0.25 for the first, no more than 0.25 for the second.

Compared with HPSS, SICN is higher in enrichment ratio: no more than 0.25 for the first, 20.7 for the second.

NNNG and FNAI cannot be ordered by enrichment ratio: no more than 0.25 for the first, no more than 0.25 for the second.

NDES and AYTQ cannot be ordered by enrichment ratio: no more than 0.25 for the first, no more than 0.25 for the second.

SMDA and RMNA cannot be ordered by enrichment ratio: no more than 0.25 for the first, no more than 0.25 for the second.

RHQT and RNFY cannot be ordered by enrichment ratio: no more than 0.25 for the first, no more than 0.25 for the second.

CLMP and HESD cannot be ordered by enrichment ratio: no more than 0.25 for the first, no more than 0.25 for the second.

QDSY and QFMS cannot be ordered by enrichment ratio: no more than 0.25 for the first, no more than 0.25 for the second.

CFYR and MAKV cannot be ordered by enrichment ratio: no more than 0.25 for the first, no more than 0.25 for the second.

DSKF and APLG cannot be ordered by enrichment ratio: no more than 0.25 for the first, no more than 0.25 for the second.

Compared with QTNL, TKKI is lower in enrichment ratio: 10.8 for the first, no more than 0.25 for the second.

HCAS and PLEP cannot be ordered by enrichment ratio: no more than 0.25 for the first, no more than 0.25 for the second.

FKHD and MCPM cannot be ordered by enrichment ratio: no more than 0.25 for the first, no more than 0.25 for the second.

RINW and MKWK cannot be ordered by enrichment ratio: no more than 0.25 for the first, no more than 0.25 for the second.

RMCY and LSAC cannot be ordered by enrichment ratio: no more than 0.25 for the first, no more than 0.25 for the second.

DYVP showed an enrichment ratio of no more than 0.25.
